Measurements as given in PMC12136788.
The list shows a part of the results.

B1: chr17:27613171:27613172:-_ENSG00000108256_ENST00000225388|hu_hu|motif|central (ssRNA)
RNA: GGGAGUUCUACAGUCCGACGAUCCGUAGGAGAGGCCAGAGGAUUUUGACUUUCUAUCUCGUAGUCCUUUGAGAGAAACACGGAAGCACCUUGACUACUGGUGUCUGCUUUCUGCAGGUCACCUAUAUGACUGGGUUCCAAGGACAACAGAGGAUUGAGCAUCA
B2: chr17:60770872:60770873:+_ENSG00000011028_ENST00000303375|hu_hu|hu_hu_hu_mus_True|8_98 (ssRNA)
RNA: GGGAGUUCUACAGUCCGACGAUCUCUUUAAAAAAAAUUCCUUUUUUACAAACAAUAAUAGCACAUUUCGAGAAUCAAGAACUACAAUAGAGGGUCCGCUUUGAGUUUUUGUUCACAUCGUCCUGCAACGCUGUCGCGGGACUGCAACAGAGGAUUGAGCAUCA
B3: chr8:29963340:29963341:+_ENSG00000104660_ENST00000321250|hu_hu|motif|central (ssRNA)
RNA: GGGAGUUCUACAGUCCGACGAUCUUUUCACCACUGCUGCCAGCUGAAGUCGUCAUUGCUUCCAAAGACCAAGAAAAAGCCGGGUAUAGUUGCAAAGAUGACUGUGUUUCCUGUGAGAACAAGUGCACAAGCUCCCCACUCAAUCAACAGAGGAUUGAGCAUCA
B4: 72613626_72632935_896_3pUTR_ENSG00000137478_ENST00000311172|human|control|control (ssRNA)
RNA: GGGAGUUCUACAGUCCGACGAUCUUUGUGAAAUACAGCGUUUUCUUGCAAAAACAGCUGAAGAUUGUAGUCCCGGACCACCUUGCUGGAGUUUUCUAAUAAAAACUGGAAUGUGUUCUGCACAGCUUGGCAUGUUUCUAGCUCCAACAGAGGAUUGAGCAUCA
B5: chr10:127947519:127947520:-_ENSMUSG00000025366_ENSMUST00000026427|mus_hu|FALSE|FALSE (ssRNA)
RNA: GGGAGUUCUACAGUCCGACGAUCGCUCAGGUCCCCGCCCCAGGGGCCCAGAAGGAUAAAGGCCGUGCAGUAAAGGGAACAUACGGUUCUUCUCUUUGGUCAGGCAAAGGCCCGAAUAUGGGCCUGUUAGGUGAAAGGGCUGAACAACAGAGGAUUGAGCAUCA
B6: chr5:139702750:139702751:+_ENSMUSG00000036817_ENSMUST00000110883|mus_hu|FALSE|FALSE (ssRNA)
RNA: GGGAGUUCUACAGUCCGACGAUCUCUCGACACGGGCCCGGGGGCCGCGGGGUGCGCCGUGAGCACGUCCUUGCGCUCGGACAGCAUGCUGCAGUUGCUGCAGGAGAAGCCGUUGUGCGCGGUGGCGGCGGCGGCUCCCACAUCCAACAGAGGAUUGAGCAUCA
B7: chr16:69481128:69481129:+_ENSG00000103018_ENST00000515314|hu_hu|FALSE|FALSE (ssRNA)
RNA: GGGAGUUCUACAGUCCGACGAUCCAACGGAUGGAUAUCACCAAUGUAGUACUGCUUUAGCAUUUCUCUGGCAUCAGAAGAGUGUCCUACAUCUUCAAAGCUUUCACUUGCAUCUACACCAGCUUGUUCCAGCAGAACCUCUUCCAACAGAGGAUUGAGCAUCA
B8: chr11:114320625:114320626:+_ENSG00000076043_ENST00000544827|hu_hu|FALSE|FALSE (ssRNA)
RNA: GGGAGUUCUACAGUCCGACGAUCAACUCACGGUCUUCUCAUUUUCCCCAUUUUCUAUAAUUUUCCUCUUCUUUUCAUCUAUUUUUUUCUUGAAGAUGUUAUUUCGGUAAAACUGAAGCUCUUUGAUGCUUUCACUAAUGUCAUCAACAGAGGAUUGAGCAUCA
B9: 76463319_76463439_2648_CDS_ENSMUSG00000059323_ENSMUST00000168185|mouse|control|control (ssRNA)
RNA: GGGAGUUCUACAGUCCGACGAUCACCAUCAAGACUUGUCAGGCGACUCUGCUUGACACGGGUCCGGGGCCUUGCAGGACAUCGCUCAUAGUCUGACACCGAGGUGCUGGGCCUGCCGCUGCGGGUCAGAGGUGUAUCUACCUCCAACAGAGGAUUGAGCAUCA
B10: chr7:141438946:141438947:+_ENSG00000106028_ENST00000265304|hu_mus|hu_hu_hu_mus_True|58_88 (ssRNA)
RNA: GGGAGUUCUACAGUCCGACGAUCGACGAAAUACCUGUAACACAGGUGAAACAUGGCUGGCUUCUGUUUUUCUUACAGUCUAAUCUUUAGGCUUUUCCUAAAGGAAAGAAAGAAAAGAGAAAAAUGAUAAAUCAAGAAACUACACAACAGAGGAUUGAGCAUCA
B11: chrX:51640900:51640901:+_ENSG00000179222_ENST00000326587|hu_hu|FALSE|FALSE (ssRNA)
RNA: GGGAGUUCUACAGUCCGACGAUCGGGGGUACUGAUGAGAAUAUACAGGUGUUCUUCUUUGUCAAUUUCUUUCAGUUGAAUCCCAAAUUUCUUCUCUAGGACAAAGCAUGCACGUUCAAUGAUUUCUGGAUAAACAUCAGUGUACAACAGAGGAUUGAGCAUCA
B12: chr3:39121231:39121232:+_ENSG00000114742_ENST00000302313|hu_mus|FALSE|FALSE (ssRNA)
RNA: GGGAGUUCUACAGUCCGACGAUCAUUCGUAUCUUUGGUUAAUAUGUGUCGCUUGUCAUUUAGGAUGUGGCACUGAAUAAUACUAGCGCCCCCUUUAAUAACUUGGUCGGGCUGUGUGCAGAGGGGCGUUAUGGGGUUUGUACACAACAGAGGAUUGAGCAUCA
B13: 126588468_126592375_426_3pUTR_ENSMUSG00000042446_ENSMUST00000135003|mouse|control|control (ssRNA)
RNA: GGGAGUUCUACAGUCCGACGAUCUUACUGGUGGUACUAUUUUCAAACUGGGCACUGAUCACAUCCUUUGGAUUUAAAAUGUCUUUUGAGCAACUUGAACAAGUCUUCUUGGUGAGGGGAGGCGGUGGGCGGGCAGGUGGAACUCAACAGAGGAUUGAGCAUCA
B14: chr15:25616465:25616466:-_ENSG00000114062_ENST00000438097|hu_mus|motif|central (ssRNA)
RNA: GGGAGUUCUACAGUCCGACGAUCAGCUUUGCAAAAUAAUGGCAACGCCAUUUCCAGAUAUUCAGGACUGUGGAGAUUACGGUUCUCCAUUACAAUAAUGAACAAAUUGAGAUAAUUAGGAUCUCGAGUAUACACAUUAUGAUACAACAGAGGAUUGAGCAUCA

The binders below were run against T1, UNK ZnF1-3 (human, UniProt Q9C0B0 31-174) (assay: nsRBNS (natural sequence RNA bind-n-seq); RBNS binding buffer (assumed for nsRBNS): 25 mM Tris pH 7.5, 150 mM KCl, 3 mM MgCl2, 0.01% Triton X-100, 500 ug/ml BSA, 20 U/ml SUPERase-In, 4 C; UNK is unkempt and MSI1 is Musashi-1; names of the RNAs are library labels; protein concentration not given here; high values mean tight binding).
T1 sequence: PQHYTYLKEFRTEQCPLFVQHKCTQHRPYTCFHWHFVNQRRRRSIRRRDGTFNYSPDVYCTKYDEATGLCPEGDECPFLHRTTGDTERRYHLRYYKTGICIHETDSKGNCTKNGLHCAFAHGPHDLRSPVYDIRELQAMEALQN

Binder | binding signal
B1 | 1.11 enrichment R
B2 | 0.831 enrichment R
B3 | 1.47 enrichment R
B4 | 0.77 enrichment R
B5 | 1.11 enrichment R
B6 | 0.417 enrichment R
B7 | 0.957 enrichment R
B8 | 0.413 enrichment R
B9 | 0.485 enrichment R
B10 | 0.847 enrichment R
B11 | 1.12 enrichment R
B12 | 0.541 enrichment R
B13 | 1.07 enrichment R
B14 | 0.807 enrichment R
